Measured values reported in PMC4003280, “Structural basis for the Nanos-mediated recruitment of the CCR4–NOT complex and translational repression” (Genes & Development, 2014).
Results are given in words; binding and its absence hold for the method and conditions named. For some assays here: In cells and extracts the contact can be indirect. Some binding calls cover weakened binding; strength is not graded here. For some assays here: Where a sequence is shown, tags or fusion partners need not be part of it. Each block holds one molecule with its values, some of them ahead of it.

Sequences of proteins named here, by UniProt entry; tags and fusion partners are left off. A change or cut given only in a name is not applied to a line headed by its entry. A line that says so, or that is headed by a name, gives the form on record, which may keep a tag or linker.
UniProt P60321: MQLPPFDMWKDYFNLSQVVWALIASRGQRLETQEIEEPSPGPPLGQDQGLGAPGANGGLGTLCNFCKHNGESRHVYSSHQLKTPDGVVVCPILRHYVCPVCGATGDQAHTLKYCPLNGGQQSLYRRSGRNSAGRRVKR
V5-SBP-tagged Nanos2 Δ6–22 (P60321, form named): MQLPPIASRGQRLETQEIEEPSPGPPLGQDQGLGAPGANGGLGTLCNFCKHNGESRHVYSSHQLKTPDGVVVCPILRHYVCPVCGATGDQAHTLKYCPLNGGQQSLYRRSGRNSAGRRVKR
UniProt P60323: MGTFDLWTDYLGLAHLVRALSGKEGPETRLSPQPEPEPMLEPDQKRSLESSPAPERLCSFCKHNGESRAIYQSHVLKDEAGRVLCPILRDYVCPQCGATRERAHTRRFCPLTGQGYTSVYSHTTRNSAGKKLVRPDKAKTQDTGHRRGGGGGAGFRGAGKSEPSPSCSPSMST
V5-SBP-tagged Nanos3 Δ4–20 (P60323, form named): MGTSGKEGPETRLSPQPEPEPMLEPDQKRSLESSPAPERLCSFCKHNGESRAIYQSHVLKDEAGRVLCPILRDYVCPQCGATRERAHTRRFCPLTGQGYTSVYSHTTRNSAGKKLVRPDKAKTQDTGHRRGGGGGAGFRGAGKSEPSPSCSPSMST
UniProt A5YKK6: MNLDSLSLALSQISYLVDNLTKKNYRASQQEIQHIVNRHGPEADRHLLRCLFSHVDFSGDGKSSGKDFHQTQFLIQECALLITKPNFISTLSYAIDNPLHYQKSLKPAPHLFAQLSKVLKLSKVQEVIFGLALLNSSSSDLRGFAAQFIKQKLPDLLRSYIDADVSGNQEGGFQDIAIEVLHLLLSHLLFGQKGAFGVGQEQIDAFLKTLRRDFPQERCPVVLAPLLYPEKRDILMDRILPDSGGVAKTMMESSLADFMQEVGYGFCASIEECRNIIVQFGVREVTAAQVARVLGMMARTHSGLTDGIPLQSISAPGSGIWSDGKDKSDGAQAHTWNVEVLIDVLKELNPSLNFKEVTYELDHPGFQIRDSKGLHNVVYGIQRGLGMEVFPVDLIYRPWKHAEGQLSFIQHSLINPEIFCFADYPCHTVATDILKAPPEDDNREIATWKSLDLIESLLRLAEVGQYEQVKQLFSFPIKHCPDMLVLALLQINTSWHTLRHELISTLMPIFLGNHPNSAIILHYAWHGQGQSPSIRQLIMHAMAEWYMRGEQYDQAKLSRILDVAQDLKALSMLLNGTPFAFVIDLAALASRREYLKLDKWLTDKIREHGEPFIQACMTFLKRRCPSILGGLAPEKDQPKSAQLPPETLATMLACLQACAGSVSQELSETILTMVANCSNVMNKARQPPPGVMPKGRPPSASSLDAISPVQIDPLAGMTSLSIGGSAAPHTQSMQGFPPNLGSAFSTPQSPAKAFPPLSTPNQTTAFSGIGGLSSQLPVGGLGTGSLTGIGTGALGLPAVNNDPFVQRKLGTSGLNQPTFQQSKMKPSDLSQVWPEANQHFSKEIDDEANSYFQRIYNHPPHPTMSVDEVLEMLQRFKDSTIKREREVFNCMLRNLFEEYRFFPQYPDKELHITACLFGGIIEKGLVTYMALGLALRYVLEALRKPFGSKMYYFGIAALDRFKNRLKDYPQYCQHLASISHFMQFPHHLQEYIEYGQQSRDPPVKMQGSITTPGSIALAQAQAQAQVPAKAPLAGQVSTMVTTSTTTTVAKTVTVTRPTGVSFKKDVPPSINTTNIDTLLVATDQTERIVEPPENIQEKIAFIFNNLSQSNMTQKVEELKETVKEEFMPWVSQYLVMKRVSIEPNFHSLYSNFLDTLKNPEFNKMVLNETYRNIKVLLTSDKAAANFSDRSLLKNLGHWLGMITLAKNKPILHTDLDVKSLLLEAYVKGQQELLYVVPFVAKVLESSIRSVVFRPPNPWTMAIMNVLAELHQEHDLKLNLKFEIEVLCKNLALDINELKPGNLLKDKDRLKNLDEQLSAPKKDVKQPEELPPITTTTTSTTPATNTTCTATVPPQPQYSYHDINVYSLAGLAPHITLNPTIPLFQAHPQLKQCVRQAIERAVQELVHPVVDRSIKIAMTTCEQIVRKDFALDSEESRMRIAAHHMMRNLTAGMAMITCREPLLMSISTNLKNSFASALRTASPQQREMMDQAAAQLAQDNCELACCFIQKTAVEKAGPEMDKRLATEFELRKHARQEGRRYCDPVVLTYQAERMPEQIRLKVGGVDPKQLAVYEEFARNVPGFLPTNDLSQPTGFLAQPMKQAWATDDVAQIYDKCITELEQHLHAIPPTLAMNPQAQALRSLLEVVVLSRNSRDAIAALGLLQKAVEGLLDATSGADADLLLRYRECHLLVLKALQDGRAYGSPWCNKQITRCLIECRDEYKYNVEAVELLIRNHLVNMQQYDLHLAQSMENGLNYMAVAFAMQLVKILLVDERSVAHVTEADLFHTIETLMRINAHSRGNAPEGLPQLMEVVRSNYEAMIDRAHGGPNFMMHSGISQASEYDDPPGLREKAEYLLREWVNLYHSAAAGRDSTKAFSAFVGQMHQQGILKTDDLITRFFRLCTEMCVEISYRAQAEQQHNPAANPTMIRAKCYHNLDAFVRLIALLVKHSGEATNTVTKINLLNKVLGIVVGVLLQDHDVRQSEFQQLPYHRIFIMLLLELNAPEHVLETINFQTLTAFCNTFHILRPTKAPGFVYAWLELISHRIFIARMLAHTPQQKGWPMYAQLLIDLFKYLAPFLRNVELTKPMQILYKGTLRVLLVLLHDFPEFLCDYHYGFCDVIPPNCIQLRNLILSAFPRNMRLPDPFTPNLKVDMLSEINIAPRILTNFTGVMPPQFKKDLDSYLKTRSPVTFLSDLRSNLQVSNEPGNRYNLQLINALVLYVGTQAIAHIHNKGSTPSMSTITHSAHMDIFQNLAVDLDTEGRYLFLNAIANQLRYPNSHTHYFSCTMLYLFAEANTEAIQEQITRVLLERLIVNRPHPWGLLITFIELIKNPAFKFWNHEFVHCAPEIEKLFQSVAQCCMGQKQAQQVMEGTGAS
UniProt Q9NZN8: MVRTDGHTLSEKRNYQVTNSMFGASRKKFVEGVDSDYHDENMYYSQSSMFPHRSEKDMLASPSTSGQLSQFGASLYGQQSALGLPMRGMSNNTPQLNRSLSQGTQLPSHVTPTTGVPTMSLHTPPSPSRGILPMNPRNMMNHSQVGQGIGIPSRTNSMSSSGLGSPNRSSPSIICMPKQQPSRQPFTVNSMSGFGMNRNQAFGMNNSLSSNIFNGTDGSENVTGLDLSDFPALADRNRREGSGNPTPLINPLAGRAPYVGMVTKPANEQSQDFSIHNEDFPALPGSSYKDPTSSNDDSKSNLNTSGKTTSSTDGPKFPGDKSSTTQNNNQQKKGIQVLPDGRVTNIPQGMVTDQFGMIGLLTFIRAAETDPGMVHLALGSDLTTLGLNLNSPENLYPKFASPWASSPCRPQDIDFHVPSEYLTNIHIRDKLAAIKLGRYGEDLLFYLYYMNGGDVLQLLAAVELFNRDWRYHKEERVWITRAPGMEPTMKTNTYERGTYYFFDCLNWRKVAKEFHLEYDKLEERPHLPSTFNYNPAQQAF
UniProt O75175: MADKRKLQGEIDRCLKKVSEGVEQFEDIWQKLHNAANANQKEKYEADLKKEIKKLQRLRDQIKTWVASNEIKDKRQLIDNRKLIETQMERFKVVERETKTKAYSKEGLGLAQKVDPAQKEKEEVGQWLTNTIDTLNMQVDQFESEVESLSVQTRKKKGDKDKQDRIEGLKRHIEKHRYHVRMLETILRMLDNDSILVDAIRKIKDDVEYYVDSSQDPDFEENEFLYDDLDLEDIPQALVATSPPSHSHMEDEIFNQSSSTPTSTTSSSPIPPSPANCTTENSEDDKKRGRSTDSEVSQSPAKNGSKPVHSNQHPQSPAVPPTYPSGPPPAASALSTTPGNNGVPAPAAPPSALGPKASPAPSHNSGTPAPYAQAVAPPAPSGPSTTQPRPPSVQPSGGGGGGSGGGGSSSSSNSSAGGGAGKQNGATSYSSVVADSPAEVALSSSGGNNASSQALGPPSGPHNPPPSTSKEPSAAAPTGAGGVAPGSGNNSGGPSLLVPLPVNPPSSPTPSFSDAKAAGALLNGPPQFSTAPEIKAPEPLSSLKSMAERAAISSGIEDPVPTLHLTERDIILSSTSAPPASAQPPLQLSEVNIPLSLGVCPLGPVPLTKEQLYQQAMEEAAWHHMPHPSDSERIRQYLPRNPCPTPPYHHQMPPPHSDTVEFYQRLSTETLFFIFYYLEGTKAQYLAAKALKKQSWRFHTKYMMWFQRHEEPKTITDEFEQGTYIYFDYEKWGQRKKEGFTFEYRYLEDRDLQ

Tests used:
GST-Nanos1 NIM (human) [1] = target: T1, GST-Nanos1 NIM (human) (UniProt Q8WY41); test: pull-down; GST pull-down in vitro with recombinant proteins expressed in E. coli; GST-NIM as bait; both purified
T1 sequence: FSSWNDYLGLATLITKA

GST-Nanos2 NIM (human) [2] = target: T2, GST-Nanos2 NIM (human) (UniProt P60321); test: as above
T2 sequence: FDMWKDYFNLSQVVWAL

GST-Nanos3 NIM (human) [3] = target: T3, GST-Nanos3 NIM (human) (UniProt P60323); test: as above
T3 sequence: FDLWTDYLGLAHLVRAL

GST-Nanos1 NIM (human) [4] = target: T1, GST-Nanos1 NIM (human); test: pull-down; GST pull-down with competitor: MBP-Nanos3 NIM (or its Y10E mutant) in 0.5-fold, onefold and fivefold molar excess relative to the GST-NIMs; NOT module as prey; both purified
GST-Nanos2 NIM (human) [5] = target: T2, GST-Nanos2 NIM (human); test: as above
GST-Nanos3 NIM (human) [6] = target: T3, GST-Nanos3 NIM (human); test: as above
[7] = target: T4, V5-SBP-MBP-Nanos1 conserved motif (NIM) (human) (UniProt Q8WY41); test: pull-down; SBP (streptavidin-binding peptide) pull-down from lysates of HEK293T cells expressing V5-SBP-tagged Nanos proteins; endogenous CNOT1 and CNOT3 detected by Western blotting
T4 sequence: FSSWNDYLGLATLITKA

[8] = target: T5, V5-SBP-MBP-Nanos2 conserved motif (NIM) (human) (UniProt P60321); test: as above
T5 sequence: FDMWKDYFNLSQVVWAL

[9] = target: T6, V5-SBP-MBP-Nanos3 conserved motif (NIM) (human) (UniProt P60323); test: as above
T6 sequence: FDLWTDYLGLAHLVRAL

[10] = target: T7, V5-SBP-tagged Nanos1 (full length) (human) (UniProt Q8WY41); test: as above
T7 sequence: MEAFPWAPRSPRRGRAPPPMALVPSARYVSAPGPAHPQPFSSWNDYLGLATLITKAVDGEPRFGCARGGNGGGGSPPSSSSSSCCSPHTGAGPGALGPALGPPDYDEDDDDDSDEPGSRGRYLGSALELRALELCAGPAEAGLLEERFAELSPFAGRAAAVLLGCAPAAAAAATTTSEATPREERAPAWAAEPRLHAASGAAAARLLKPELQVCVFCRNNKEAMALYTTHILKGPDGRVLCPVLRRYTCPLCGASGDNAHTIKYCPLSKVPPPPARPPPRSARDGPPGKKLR

[11] = target: T8, V5-SBP-tagged Nanos1 F40A (human) (UniProt Q8WY41); test: as above
T8 sequence: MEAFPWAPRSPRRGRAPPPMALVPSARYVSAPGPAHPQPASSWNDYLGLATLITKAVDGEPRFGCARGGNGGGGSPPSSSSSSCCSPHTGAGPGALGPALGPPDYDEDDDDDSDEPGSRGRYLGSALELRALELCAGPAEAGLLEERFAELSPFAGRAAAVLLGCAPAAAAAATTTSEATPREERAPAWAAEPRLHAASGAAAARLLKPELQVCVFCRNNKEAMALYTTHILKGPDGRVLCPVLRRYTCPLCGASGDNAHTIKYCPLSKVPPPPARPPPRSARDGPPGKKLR

[12] = target: T9, V5-SBP-tagged Nanos1 W43E (human) (UniProt Q8WY41); test: as above
T9 sequence: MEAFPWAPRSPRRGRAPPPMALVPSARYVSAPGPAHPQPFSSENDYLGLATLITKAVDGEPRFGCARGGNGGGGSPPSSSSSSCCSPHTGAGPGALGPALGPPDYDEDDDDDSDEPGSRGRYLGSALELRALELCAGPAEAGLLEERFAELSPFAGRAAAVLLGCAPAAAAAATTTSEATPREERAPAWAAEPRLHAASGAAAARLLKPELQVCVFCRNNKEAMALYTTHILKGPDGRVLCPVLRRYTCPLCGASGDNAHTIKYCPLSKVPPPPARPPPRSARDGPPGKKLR

[13] = target: T10, V5-SBP-tagged Nanos1 Y46E (human) (UniProt Q8WY41); test: as above
T10 sequence: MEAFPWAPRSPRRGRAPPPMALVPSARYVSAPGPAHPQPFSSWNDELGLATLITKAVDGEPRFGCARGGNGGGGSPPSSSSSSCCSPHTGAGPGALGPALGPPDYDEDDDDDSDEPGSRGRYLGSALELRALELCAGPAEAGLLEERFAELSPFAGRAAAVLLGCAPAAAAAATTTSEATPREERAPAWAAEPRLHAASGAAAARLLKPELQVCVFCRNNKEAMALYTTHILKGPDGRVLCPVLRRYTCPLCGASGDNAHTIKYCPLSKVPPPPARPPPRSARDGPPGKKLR

[14] = target: T11, V5-SBP-tagged Nanos1 fragment 1–58 (human) (UniProt Q8WY41); test: as above
T11 sequence: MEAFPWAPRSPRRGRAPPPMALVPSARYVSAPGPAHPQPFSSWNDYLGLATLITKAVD

[15] = target: T12, V5-SBP-tagged Nanos1 Δ40–56 (human) (UniProt Q8WY41); test: as above
T12 sequence: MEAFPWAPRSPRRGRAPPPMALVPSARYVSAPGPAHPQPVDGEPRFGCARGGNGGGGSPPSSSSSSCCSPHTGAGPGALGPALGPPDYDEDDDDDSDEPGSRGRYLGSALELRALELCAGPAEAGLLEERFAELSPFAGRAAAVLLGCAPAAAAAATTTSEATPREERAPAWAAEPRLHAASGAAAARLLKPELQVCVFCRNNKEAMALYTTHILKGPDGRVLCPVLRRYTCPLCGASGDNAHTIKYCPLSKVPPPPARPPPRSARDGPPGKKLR

[16] = target: V5-SBP-tagged Nanos2 (full length) (human) (UniProt P60321); test: as above
[17] = target: V5-SBP-tagged Nanos2 F6A (human) (UniProt P60321); test: as above
[18] = target: V5-SBP-tagged Nanos2 W9E (human) (UniProt P60321); test: as above
[19] = target: V5-SBP-tagged Nanos2 Y12E (human) (UniProt P60321); test: as above
[20] = target: V5-SBP-tagged Nanos2 Δ6–22 (human) (UniProt P60321); test: as above
[21] = target: V5-SBP-tagged Nanos3 (full length) (human) (UniProt P60323); test: as above
[22] = target: V5-SBP-tagged Nanos3 F4A (human) (UniProt P60323); test: as above
[23] = target: V5-SBP-tagged Nanos3 W7E (human) (UniProt P60323); test: as above
[24] = target: V5-SBP-tagged Nanos3 Y10E (human) (UniProt P60323); test: as above
[25] = target: V5-SBP-tagged Nanos3 Δ4–20 (human) (UniProt P60323); test: as above
[26] = target: recombinant NOT module (CNOT1 SHD with the CNOT2 and CNOT3 C-terminal domains) (human) (UniProt A5YKK6+Q9NZN8+O75175); test: pull-down; GST pull-down with competitor: MBP-Nanos3 NIM (or its Y10E mutant) in 0.5-fold, onefold and fivefold molar excess relative to the GST-NIMs; NOT module as prey; both purified

binding (GST-Nanos1 NIM (human) [1]): no binding
binding (GST-Nanos2 NIM (human) [2]): binds weakly
binding (GST-Nanos3 NIM (human) [3]): binds weakly
Molecule: recombinant NOT module containing CNOT1 SHD I2330E (from UniProt A5YKK6 1833-2361; Q9NZN8 344-540; O75175 607-753) (complex)

binding (GST-Nanos1 NIM (human) [1]): binds
binding (GST-Nanos2 NIM (human) [2]): binds
binding (GST-Nanos3 NIM (human) [3]): binds
binding (GST-Nanos1 NIM (human) [4]): binds
binding (GST-Nanos2 NIM (human) [5]): binds
binding (GST-Nanos3 NIM (human) [6]): binds
Molecule: recombinant NOT module (CNOT1 SHD with the CNOT2 and CNOT3 C-terminal domains) (from UniProt A5YKK6 1833-2361; Q9NZN8 344-540; O75175 607-753) (complex)

binding [7]: no binding
binding [8]: binds
binding [9]: binds
binding [10]: binds
binding [11]: no binding
binding [12]: no binding
binding [13]: no binding
binding [14]: binds
binding [15]: no binding
binding [16]: binds
binding [17]: no binding
binding [18]: no binding
binding [19]: binds
binding [20]: no binding
binding [21]: binds
binding [22]: no binding
binding [23]: no binding
binding [24]: no binding
binding [25]: no binding
Molecule: endogenous CNOT1 (from UniProt A5YKK6 1-2376)

binding (GST-Nanos1 NIM (human) [1]): no binding
binding (GST-Nanos2 NIM (human) [2]): no binding
binding (GST-Nanos3 NIM (human) [3]): no binding
Molecule: CNOT2–CNOT3 heterodimer (C-terminal domains) (from UniProt Q9NZN8 344-540; O75175 607-753) (complex)

binding (GST-Nanos1 NIM (human) [1]): no binding
binding (GST-Nanos2 NIM (human) [2]): binds weakly
binding (GST-Nanos3 NIM (human) [3]): binds weakly
Molecule: recombinant NOT module containing CNOT1 SHD F2353D (from UniProt A5YKK6 1833-2361; Q9NZN8 344-540; O75175 607-753) (complex)

binding [7]: no binding
binding [11]: no binding
binding [12]: no binding
binding [13]: no binding
binding [15]: no binding
binding [17]: no binding
binding [18]: no binding
binding [20]: no binding
binding [22]: no binding
binding [23]: no binding
binding [24]: no binding
binding [25]: no binding
Molecule: endogenous CNOT3 (from UniProt O75175 1-753)

binding [26]: binds
B1: GST-Nanos3 NIM (domain or fragment, human, UniProt P60323 4-20, looked up)
chain: FDLWTDYLGLAHLVRAL
notes: Nanos3, human, NIM, residues 4-20; also called conserved motif of Nanos3 fused to glutathione S-transferase; GST-tagged Nanos3 NIM; source: E. coli BL21 (DE3) Star, purified (described in the Supplemental Material)
